In all, about 310,000 compounds went through this assay and about 2,200 (0.71%) showed an effect of 50% or more. Effects have a minus sign here. This is one part of the list.
molecular target: human ether-à-go-go-related gene (hERG) potassium channel (human, UniProt Q12809); assay: primary screen, population patch clamp on CHO cells stably expressing hERG
Sequence (Q12809 whole entry, looked up): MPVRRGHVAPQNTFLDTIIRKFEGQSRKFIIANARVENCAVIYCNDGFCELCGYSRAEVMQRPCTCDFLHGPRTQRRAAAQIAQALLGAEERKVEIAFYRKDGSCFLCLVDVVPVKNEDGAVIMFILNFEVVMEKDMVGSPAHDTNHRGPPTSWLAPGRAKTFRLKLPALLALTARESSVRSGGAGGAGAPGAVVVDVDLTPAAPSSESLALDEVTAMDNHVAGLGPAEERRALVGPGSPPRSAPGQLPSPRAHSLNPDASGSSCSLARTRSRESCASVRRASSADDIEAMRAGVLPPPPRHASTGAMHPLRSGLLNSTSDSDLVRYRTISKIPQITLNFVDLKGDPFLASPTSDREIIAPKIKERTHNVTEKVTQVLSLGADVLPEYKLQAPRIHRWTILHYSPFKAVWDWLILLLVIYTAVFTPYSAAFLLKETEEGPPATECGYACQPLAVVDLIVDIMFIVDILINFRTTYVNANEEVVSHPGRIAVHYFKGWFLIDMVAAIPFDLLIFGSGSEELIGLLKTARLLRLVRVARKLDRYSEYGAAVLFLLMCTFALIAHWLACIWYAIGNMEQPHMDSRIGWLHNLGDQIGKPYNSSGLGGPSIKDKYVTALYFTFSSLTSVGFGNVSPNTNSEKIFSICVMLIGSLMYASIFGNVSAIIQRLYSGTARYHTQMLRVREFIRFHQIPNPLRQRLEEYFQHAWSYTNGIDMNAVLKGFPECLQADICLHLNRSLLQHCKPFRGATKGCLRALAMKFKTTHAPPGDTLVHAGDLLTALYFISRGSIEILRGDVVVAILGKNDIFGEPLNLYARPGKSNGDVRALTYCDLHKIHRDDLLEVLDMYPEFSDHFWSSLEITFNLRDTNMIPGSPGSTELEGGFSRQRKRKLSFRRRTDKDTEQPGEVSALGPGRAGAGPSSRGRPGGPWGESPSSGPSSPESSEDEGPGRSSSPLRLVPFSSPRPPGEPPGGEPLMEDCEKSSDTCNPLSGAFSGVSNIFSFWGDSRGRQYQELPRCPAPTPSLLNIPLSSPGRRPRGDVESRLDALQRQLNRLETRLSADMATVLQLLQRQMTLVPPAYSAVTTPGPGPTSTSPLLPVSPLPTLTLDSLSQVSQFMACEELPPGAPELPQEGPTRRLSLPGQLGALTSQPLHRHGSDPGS

Row | SMILES | hERG current change (%, negative = inhibition) at 1uM
1 | O=C(c1ccc2c(c1)OCO2)N1CCNc2ccccc2C1 | 4.55%
2 | CSc1cccc(N=C2C(=O)Nc3ccccc32)c1 | 7.79%
3 | CCOC(=O)c1sc(N)c(C(=O)OCC)c1COC(=O)C1CC(=O)N(Cc2ccco2)C1 (stereo not shown) | 4.29%
4 | O=C(Nc1ccc(N2CCCCC2)cc1)c1ccccn1 | 20.8%
5 | Cc1noc(C)c1C(=O)OC(C)C(=O)N1CCc2ccccc21 (stereo not shown) | 13.3%
6 | C=CCCC(=O)N1CCC(CCC(=O)NC2CC2)CC1 | 1.12%
7 | CN=C(Nc1cc(C)nn1CCC#N)c1ccccc1F | 1.18%
8 | CCOc1ccc(C(NC(=O)c2ccco2)c2ccc(OC)c(OC)c2)cc1 (stereo not shown) | 9.16%
9 | O=C(CCC1CCCC1)N1CCN(C2CCCC2)CC1.O=C(O)C(=O)O | -21.4%
10 | CC(=O)c1cccc(NC(=O)CCc2nnc3ccc(N4CCN(C)CC4)nn23)c1 | 14.4%
11 | Cc1ccc(OCCn2c(=S)[nH]c3ccccc32)c(C(C)C)c1 | 9.69%
12 | Cc1cccc(CC2SC(N3CCN(c4ccccc4)CC3)=NC2=O)c1 (stereo not shown) | 7.67%
13 | CCC1Sc2ccc(S(=O)(=O)CCC(=O)Nc3ccc(OC(F)(F)F)cc3)cc2NC1=O (stereo not shown) | 15.3%
14 | CCOC(=O)N1CCN(Cc2nc3c(c(=O)n(C)c(=O)n3C)n2CCC(C)C)CC1 | 0.807%
15 | CCc1nc2ccc(C(=O)NCc3ccc(C)o3)cc2nc1CC | 6.29%
16 | C=CCOC(=O)C1=C[C@@H](c2ccc(Br)cc2)C[C@@H](OCc2ccc(CO)cc2)O1 | 10.1%
17 | Cc1ccc(NC(=O)N(Cc2cccnc2)Cc2ccco2)cc1C | -20.9%
18 | CCCCn1cnc2sc(-c3ccccc3)cc2c1=O | 6.8%
19 | Cc1ccccc1C(=O)Nc1c(-c2cccs2)c(=O)c2ccccc2n1C | 11.6%
20 | Cc1ccnc(NS(=O)(=O)c2ccc(N3C(=O)c4ccccc4C3=O)cc2)n1 | 9.5%

Row | SMILES | hERG current change (%, negative = inhibition) at 1uM
21 | Brc1ccc(-c2cn3c(n2)SCC3)cc1 | 12.8%
22 | COc1cc(C(=O)N2CCN(C/C=C/c3ccccc3)CC2)cc(OC)c1C | 6.9%
23 | C/C(=N/NC(=O)Cc1cccn1C)c1ccccc1 | 10.1%
24 | O=C(O)CN1CCN(C(c2ccccc2)c2ccccc2)CC1 | 15.6%
25 | O=C(NCc1ccco1)c1ccc(NS(=O)(=O)c2cccc([N+](=O)[O-])c2)cc1 | 11.6%
26 | CC(NC(=O)CSc1nc2c(cc1C#N)CN(C)CC2)c1ccccc1 (stereo not shown) | -2.34%
27 | CCOc1ccccc1NC(=O)Nc1ccc2c(c1)CCC2 | -11.2%
28 | CC1(C)C(=O)OC(/C=C\c2ccccc2)C(C)(C)C1=O (stereo not shown) | 4.76%
29 | Cc1no[n+]([O-])c1COc1cccc(/C=N/Nc2nncn2N)c1 | 12.4%
30 | COc1c(Cl)cc(C(=O)NCc2ccco2)cc1Cl | 0.773%
31 | COC(=O)C1=C(C(=O)OC)[C@@H]2N(Cc3ccccc3)c3ccccc3[C@@]23C[C@@H](C(=O)OC)N=C3N1 | -0.347%
32 | NNC(=S)Nc1ccccc1Cl | -0.0438%
33 | Nc1nc(NCC2CCCO2)nc(Nc2cccc(F)c2)c1[N+](=O)[O-] (stereo not shown) | 0.655%
34 | Cn1c(C(=O)c2ccncc2)cc2ccccc21 | 5.92%
35 | O=C1CN(C(=O)CSc2nc3c(cnn3-c3ccccc3)c(=O)[nH]2)c2ccccc2N1 | 2.98%
36 | O=C(NCc1ccccn1)c1ccc(Cl)s1 | 6.51%
37 | Cc1cc(-c2nnc(CCC(=O)NCCc3ccccc3F)o2)no1 | 2.54%
38 | CCN1C(=O)Nc2cccc3cccc1c23 | 10.3%
39 | C[C@]12CCC(=O)C=C1CC[C@@H]1[C@@H]2C(=O)C[C@]2(C)C(=O)CC[C@@H]12 | 16.8%
40 | O=C(Nc1cccc(Cl)c1)N(CCCN1CCOCC1)Cc1ccccc1F | -7.59%

Row | SMILES | hERG current change (%, negative = inhibition) at 1uM
41 | C=CCOc1c(Cl)cc(CNn2cn[nH]c2=S)cc1OC | 11.8%
42 | COc1ccc(CCC(=O)NNC(=O)Nc2ccc(C(C)=O)cc2)cc1 | 26.6%
43 | Cc1ccc(C(=O)NCc2ccc3c(c2)OCO3)cc1 | 2.49%
44 | COC(=O)c1[nH]nc(C(=O)OC(C)(C)C)c1-c1ccccc1 | 0.154%
45 | S=C(Nc1ccccc1)Nc1ccccc1Br | 13.9%
46 | O=C(COC(=O)Cc1cccc(C(F)(F)F)c1)NCC1CCCO1 (stereo not shown) | 8.06%
47 | O=C(N/N=C1\C(=O)c2cccc3cccc1c23)c1ccc(O)cc1 | 5.11%
48 | Cc1cc(NS(=O)(=O)c2ccc(Nc3nc(-c4ccc(C)c(C)c4)cs3)cc2)no1.Cl | 0.836%
49 | Cc1nc2ccccc2c(=O)n1NC(=O)c1ccc(Cl)c(Cl)c1 | 11.1%
50 | CCn1nc(C)c([N+](=O)[O-])c1C(=O)NNC(=O)c1ccccc1Cl | 11.5%
51 | COc1ccc(C(=O)c2oc3ccc(OC)cc3c2N)cc1 | 10.1%
52 | FC(F)(F)C1=CC(c2ccccc2)=NCCN1 | 7.54%
53 | Cc1ccc(C(C)C)c(OCC(=O)OCC(=O)NC2CCS(=O)(=O)C2)c1 (stereo not shown) | 14%
54 | CC(C)c1ccc(N(CC(=O)NC2CCCC2)C(=O)CCC(=O)Nc2nccs2)cc1 | 15.2%
55 | O=C(O)C1CC=CCC1C(=O)NC12CC3CC(CC(C3)C1)C2 (stereo not shown) | 10.9%
56 | CC(C)(C)NC(=O)CN(C(=O)CS(=O)CC(=O)Nc1ccc(F)cc1)c1ccccc1 (stereo not shown) | 16.2%
57 | CCOC(=O)c1c(C2COc3ccccc3O2)csc1N (stereo not shown) | 1.92%
58 | COc1ccc(Cc2nc3ccc(C(=O)N(C)CCCN4CCOCC4)cc3o2)cc1 | 10.8%

Reference: paper PMC4336329 (PLoS ONE, 2015)
